# Among all 110,000 compounds or so, about 230 (0.21%) showed an effect of 50% or more. The list shows a part of the results.
# Target: DPAP1 (Plasmodium falciparum, UniProt Q8IIJ9)
# Assay: primary screen, percent inhibition; read by cleavage of a fluorogenic dipeptide substrate; higher = more effect of the substance
# Design: species or system P. falciparum D10 trophozoite lysates; single well
# 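Also: 30 min substrate incubation versus DMSO and 10 µM JCP410 controls.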
# Sequence of DPAP1 (Q8IIJ9 whole entry, looked up): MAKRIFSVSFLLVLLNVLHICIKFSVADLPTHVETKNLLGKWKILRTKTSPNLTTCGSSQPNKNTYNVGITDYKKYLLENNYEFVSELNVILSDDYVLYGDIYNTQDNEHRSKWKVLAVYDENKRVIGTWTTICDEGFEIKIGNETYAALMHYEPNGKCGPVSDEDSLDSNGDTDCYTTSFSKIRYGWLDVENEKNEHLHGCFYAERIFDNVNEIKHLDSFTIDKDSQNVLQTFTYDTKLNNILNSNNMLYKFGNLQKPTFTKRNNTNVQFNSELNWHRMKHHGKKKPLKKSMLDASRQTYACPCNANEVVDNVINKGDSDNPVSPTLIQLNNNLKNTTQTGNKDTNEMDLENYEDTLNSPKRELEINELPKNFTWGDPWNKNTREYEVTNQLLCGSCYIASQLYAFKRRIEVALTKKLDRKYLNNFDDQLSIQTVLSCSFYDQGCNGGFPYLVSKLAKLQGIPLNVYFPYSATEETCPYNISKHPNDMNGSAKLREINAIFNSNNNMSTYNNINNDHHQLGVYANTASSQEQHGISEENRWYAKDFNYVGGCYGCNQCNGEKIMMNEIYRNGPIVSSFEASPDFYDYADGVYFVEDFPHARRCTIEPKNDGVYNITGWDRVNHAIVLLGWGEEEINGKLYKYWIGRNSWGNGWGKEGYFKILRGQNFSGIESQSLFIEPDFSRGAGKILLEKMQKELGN
row,SMILES,% Inhibition @ 10 uM
1,CCCCNC(=O)CCc1nnc2n(Cc3ccc(Cl)cc3)c(=O)c3ccccc3n12,-2.42%
2,O=C(Nc1ccc(S(=O)(=O)NC2CCCCC2)cc1)c1ccc([N+](=O)[O-])cc1,2.33%
3,Cc1cccnc1NC(=O)C1CC=CCC1C(=O)O (stereo not drawn),4.35%
4,CC(NC(=O)C1c2ccccc2Oc2ccccc21)c1ccccc1 (stereo not drawn),-3.25%
5,C=CC/N=C(\CCCC/C(=N\CC=C)C1=C(O)CC(C)(C)CC1=O)C1=C(O)CC(C)(C)CC1=O,0.275%
6,CCN1C2C3N(CC)C4C1N(C(C)=O)C(C(N2C(C)=O)N3C(C)=O)N4C(C)=O,13.6%
7,Cc1ccc(CNC(=O)CN(C)S(=O)(=O)c2cccc3cccnc23)cc1,-6.07%
8,Cc1ccc(OCC(=O)NCc2cccnc2)cc1,-6.67%
9,COc1ccc2nc3sc(C(=O)N4CCC5(CC4)OCCO5)cc3cc2c1,-4.16%
10,Clc1cc2c(c3ncccc13)OCN(Cc1ccco1)C2,2.54%
11,CCOC(=O)C1=C(N)OC2=C(C(=O)CC(C)(C)C2)C1c1ccc(OCc2ccccc2)cc1 (stereo not drawn),-0.142%
12,Cc1ccc([S+](O)Nc2cccc(C(=O)O)c2)cc1 (stereo not drawn),-3.09%
13,O=C(CN1C(=O)c2ccccc2C1=O)NCc1ccccc1C(F)(F)F,1.88%
14,COc1ccc(-c2nc3ncccn3c2NC2CCCC2)cc1,2.28%
15,CC1CCCC(N2CCN(C(=O)c3ccc(F)cc3)CC2)C1 (stereo not drawn),0.147%
16,O=C(COc1ccccc1)Nc1nnc(S(=O)(=O)N2CCCCC2)s1,-5.37%
17,CCOc1ccccc1NC(=O)CN(c1ccccc1F)S(=O)(=O)c1ccccc1,1.89%
18,O=C1CCCCC1CN(Cc1ccccc1)Cc1ccccc1 (stereo not drawn),-0.807%
19,Cc1nc2sc(C(c3ccc(Br)cc3)N3CCN(CCO)CC3)c(O)n2n1 (stereo not drawn),-1.03%
20,O=c1c2oc3ccccc3c2ncn1Cc1cccc(F)c1,7.84%
21,COc1ccc(-c2csc(-c3cc4cc(Cl)cc(Cl)c4oc3=O)n2)cc1,-2.42%
22,CCCc1nnc(NC(=O)CN2C(=O)c3ccccc3S2(=O)=O)s1,7.85%
23,Cc1occc1C(=O)NCCCCNC(=O)c1ccoc1C,2.93%
24,CCOc1cc(C=C2C(=O)OC(C)(c3ccccc3)OC2=O)ccc1O (stereo not drawn),-1.47%
25,CCOc1ccc2nc(NC(=O)CSc3nc(C)c(CC(C)C)[nH]3)sc2c1,4.31%
26,COc1ccccc1-c1cc2nc(C)c(CCC(=O)Nc3cccnc3)c(C)n2n1,-0.465%
27,CCC(C(=O)Nc1cccc(NC(C)=O)c1)c1ccccc1 (stereo not drawn),0.512%

# — publication PMC6919601, “Identification of Plasmodium dipeptidyl aminopeptidase allosteric inhibitors by high throughput screening” (PLoS ONE, 2019)
